Source: US6323219A, “Methods for treating immunomediated inflammatory disorders” (Ortho-McNeil Pharmaceutical, Inc., priority 1999, dated 2001)

Assays:
[1] = system: MelanoDerm human epidermal equivalents; assay: Pigmentation of MelanoDerm epidermal equivalents (DOPA, H&E or F&M staining, image analysis); format: cell-based
[2] = system: human primary melanocytes; assay: Pigmentation of primary melanocyte cultures; format: cell-based
S91 cells = assay: Pigmentation of choleratoxin-induced S91 cells; format: cell-based, mouse
[3] = system: Co-cultures (no K-M contact); assay: Pigmentation of keratinocyte-melanocyte co-cultures without K-M contact; format: cell-based, human; settings: Table D; three days, DOPA stained on fourth day
TRP-1 = assay: RT-PCR gene expression in MelanoDerm equivalents, TRP-1; format: cell-based, human; settings: increasing concentrations; FIG. 6A
TRP-2 = assay: RT-PCR gene expression in MelanoDerm equivalents, TRP-2; format: cell-based, human; settings: increasing concentrations; FIG. 6A
tyrosinase = assay: RT-PCR gene expression in MelanoDerm equivalents, tyrosinase; format: cell-based, human; settings: increasing concentrations; FIG. 6A
trypsin = assay: RT-PCR trypsin expression in MelanoDerm equivalents; format: cell-based, human; settings: FIG. 6A, 6B
[4] = system: guinea pig nipple pigmentation; assay: Guinea pig nipple pigmentation, topical, chromameter; format: in vivo; settings: for lightening effect, L* change: five days/week, 70:30 ethanol:propylene glycol
Yucatan swine skin = Yucatan swine skin pigmentation, topical, visual/chromameter/histology; settings: 10 μM, twice daily, five days per week, eight weeks
[5] = Table D, three days, DOPA stained on fourth day

For `CN[C@H](Cc1ccccc1)C(=O)N1CCC[C@H]1C(=O)N[C@@H](CCCNC(=N)N)C(=O)c1nc2ccccc2s1` [Compound I], the “effect on pigmentation, MelanoDerm (K-M contact)” value [1, 5] was “lightening”, the “pigmentation, dose-response” value ([1]; increasing concentrations, SLIGRL 0, 10 and 50 μM, Compound I 0.1 μM to 1 μM, FIG. 4A) was “decreasing pigmentation” and the UVB-induced pigmentation ([1]; pretreatment with UVB irradiation, FIG. 4B) was “able to reduce this UVB-induced pigmentation”. The “effect on pigmentation, Melanocytes (no K)” value [2, 5] was “no effect”, the “level of pigmentation, human primary melanocytes” value ([2]; melanocytes alone) was “not affected” and the “level of pigmentation, choleratoxin-induced S91 cells” value (S91 cells) was “not affected”. The “effect on pigmentation, Co-cultures (no K-M contact)” value [3] was “no effect”, the “TRP-1 mRNA level” value (TRP-1) was “dose-dependent decrease” and the “TRP-2 mRNA level” value (TRP-2) was “dose-dependent increase”. For the same molecule, the Tyrosinase expression (tyrosinase) was “not affected”, the trypsin expression (trypsin) was “increased expression of trypsin” and the “lightening effect, L* change” value ([4]; 1 μM, twice daily, seven weeks) was “+9.6 L*”. The “chromameter measurement of pigmentation” value ([4]; 10 μM, twice daily, after six weeks, FIG. 7) was “lightening effect”, the “lightening effect, L* change” value ([4]; 10 μM, twice daily, seven weeks) was about 18 L* units and the signs of irritation ([4]; 1 and 10 μM, seven weeks, topical) was “No visible signs of irritation”. For the same molecule, the “effect on skin pigmentation” value (Yucatan swine skin) was “visible lightening effect”.
